Test results from ChEMBL document CHEMBL1157539, “Thousands of chemical starting points for antimalarial lead identification” (Nature, 2010).
Over roughly 13,000 compounds, “IFI” has its median near 4; the highest 2% begin near 17. The list shows a part of the results.

Assay: GSK_TCMDC: Inhibition Frequency Index (IFI). The number of non-kinase HTS assays where a compound showed > 50 % inhibition, expressed as a percentage of the number of such assays in which the compound was tested (-0 is zero)
Assay type: functional

| SMILES | IFI [%] |
| --- | --- |
| CC(=O)Nc1ccc(OCCCN(Cc2ccccc2C(F)(F)F)c2ccc(C(F)(F)F)c(C#N)c2)c(Cl)c1 | -0 |
| CC(C)(C)CNCC(C)(C)c1nc(-c2ccc(Cl)c(O)c2)c(-c2ccncc2)[nH]1 | 3.62 |
| Fc1ccccc1COc1ccc(Nc2ncnc3ccc(-c4nnc(C(F)(F)F)o4)cc23)cc1Cl | 1.46 |
| O=C(/C=C/c1ccc(-c2nc3ccc(Cl)cc3[nH]2)cc1)NC1CCN(Cc2ccccc2)CC1 | 1.45 |
| Cc1cc(NC(=O)Nc2ccc(I)c(OCCN(C)C)c2)ccc1Br | 5.8 |
| CCN(CC)/C(=N/C(=N)Nc1ccc(Cl)c(Cl)c1)NCCCCCCN/C(=N\C(=N)Nc1ccc(Cl)c(Cl)c1)N(CC)CC | 9.35 |
| CN(C)CCOc1ccc(/C(=C(/CCCn2ccnc2)c2ccccc2)c2ccc(O)cc2)cc1 | 12.5 |
| COc1cc(Cc2cnc(N)nc2N)cc(OCCNC(=O)OCc2ccccc2)c1OC | 0.76 |
| CC(C)CCN1CCCN(Cc2cccc(NC(=O)c3ccc(Cl)c(Cl)c3)c2)CC1 | 6.04 |
| C[C@H](Cc1ccc(OCCCCCCOc2ccc(C[C@@H](C)NC(=O)[C@H](O)c3cccc(Cl)c3)cc2)cc1)NC[C@H](O)c1cccc(Cl)c1 | 11.3 |
| N=C(N)c1cc(Br)cc(NC(=O)Nc2cc(Br)cc(C(=N)N)c2)c1 | 2.92 |
| COc1cc(C(=O)Nc2cccc(-c3nc4ccccc4[nH]3)c2)cc(OC)c1OC | 4.32 |
| CN/C(=C\[N+](=O)[O-])NCCSCc1cc(C)c(CN(C)C)s1 | 4.38 |
| COc1ccc2ncc(Cl)c(CCN3CCC(NCc4ccc5c(n4)NC(=O)CS5)CC3)c2c1 | 4.41 |
| O=C(Nc1ccc(OC2CCN(Cc3ccc(F)cc3)C2)c(Cl)c1)c1ccccc1 (stereo unspecified) | 1.61 |
| Nc1ccc(-c2ccc(NC(=O)Nc3ccccc3)cc2)cn1 | 1.33 |
| Cc1[nH]cnc1Cc1ccc2c(c1O)c1ccccc1n2C | 4.38 |
| Cc1cccc(S(=O)(=O)Nc2cccc(CCN3CCC(N4CCCCC4)CC3)c2)c1 | 3.17 |
| CCCc1cc(Cc2cnc(N)nc2N)cc(CC)c1OC | 1.52 |
| N#Cc1cccc(NC(=O)Nc2ccc3c(c2)CN(Cc2c[nH]c4ncccc24)C3)c1 | 3.4 |
| Oc1ccccc1Nc1nc(NCc2ccco2)c2ccccc2n1 | 7.32 |
| CC1(C)NC(N)=NC(=N)N1OCCCNC(=O)c1ccc(C(=O)NCCCON2C(=N)N=C(N)NC2(C)C)cc1 | 0.75 |

| SMILES | IFI [%] |
| --- | --- |
| CCN(CC)CCCN(C(=O)Nc1cc(F)cc(F)c1)c1nc(-c2ccc(F)cc2)cs1 | 7.32 |
| Fc1ccc2[nH]c(-c3ccc(-c4ccc(CN5CCCCC5)cc4)s3)nc2c1 | 2.82 |
| COc1ccc2ncc(F)c(CCN3CC4CCCC4(CNCc4ccc5c(n4)NC(=O)CS5)C3)c2n1 (stereo unspecified) | 0.94 |
| CC(Sc1nnc(-c2ccccc2Br)[nH]1)C(=O)Nc1ccc(F)cc1 (stereo unspecified) | 1.52 |
| Nc1ccc(Nc2ccnc3ccc(C(F)(F)F)cc23)cc1O | 10.1 |
| Cc1ccc(-c2cccc3c(NC(=O)Nc4ccc5nccc(N6CCN(C)CC6)c5c4)cccc23)cn1 | 4.35 |
| OC(c1ccc(Cl)cc1)(c1ccc(Cl)cc1)C(c1ccc(Cl)cc1)n1ccnc1 (stereo unspecified) | 4.84 |
| CCN(c1ccc(F)cc1)S(=O)(=O)c1cc(Br)cc2c1N(C(=O)C1CC1)CC2 | 1.37 |
| Cc1cc(F)ccc1Oc1nc(Nc2ccc(N3CCOCC3)c(F)c2)nc2c1S(=O)(=O)CCC2 | -0 |
| Cc1cc(N2CCCC2=O)ccc1-c1ccc(C(=O)N2CCC(Oc3cccc(Cl)c3)CC2)cc1 | 10.2 |
| COc1cc2[nH]c(-c3ccc(O)cc3)c(C)c(=O)c2c(OC)c1OC | -0 |
| CCCO[C@H](C(=O)OC)[C@@H](CC1Cc2ccccc2C1)C(=O)NCCC1=CCCCC1 | 2.22 |
| CCCN/C=N/c1cc(-c2csc(NC(=N)N)n2)cc([N+](=O)[O-])c1 | 2.14 |
| CCCN1CCN(CC(O)CNC(=O)Nc2ccc(Br)cc2)CC1 (stereo unspecified) | 0 |
| O=C(Nc1cccc(C(F)(F)F)c1)c1ccc(S(=O)(=O)NC2CCN(CC3CCCCC3)C2)cc1 (stereo unspecified) | 4.04 |
| CC(=O)c1ccc(NC(=O)Nc2ccc(N(C)c3ccnc(Nc4cccc(CS(C)(=O)=O)c4)n3)cc2)cc1 | 10.1 |
| CN1CCc2ccc(NC(=O)Nc3cccc([N+](=O)[O-])c3)cc2C1 | 0.74 |
| CC1(C)C(N(O)C(=O)Nc2ccc(Cl)c(Cl)c2)N(c2ccc(Cl)c(Cl)c2)C(=O)N1CCc1ccccc1 (stereo unspecified) | 7.38 |
| CCCCCOc1ccc(C(O)C(CCC(CN2CCCCCC2)C(O)c2ccc(OCCCCC)cc2)CN2CCCCCC2)cc1 (stereo unspecified) | 12.9 |
| CCS(=O)(=O)c1ccc(OC)c(Nc2nccc(-c3c(-c4cccc(NC(=O)c5c(F)cccc5F)c4)nn4ncccc34)n2)c1 | 1.46 |
| CC(=O)Nc1ncc(C(=O)Nc2cccc(-c3cccc(-c4nc5ccccc5[nH]4)c3)c2)s1 | 2.78 |
| CN(C)c1ccc(-c2csc(C(=O)NC3CCN(CCC(C)(C)C)C3)c2)cc1 (stereo unspecified) | 9.09 |

| SMILES | IFI [%] |
| --- | --- |
| CCOC(=O)c1ccc2[nH]c(-c3ccc(C(=O)NC4CCN(Cc5ccccc5)CC4)s3)nc2c1 | 4.26 |
| COc1ccc(OC(C)CNC(=O)c2cc([N+](=O)[O-])ccc2-c2ccc(OC)cc2)cc1 (stereo unspecified) | 1.83 |
| Cc1cccc2nc(-c3ccc(-c4cccc(CNCc5cnn(-c6ccccc6)n5)c4)s3)[nH]c12 | 7.94 |
| O=C(NC1CCN(Cc2ccccc2)CC1)c1ccc2c(=O)n(Cc3ccc(Cl)cc3)c(=S)[nH]c2c1 | 6.62 |
| CC(C)CNCc1cccc(-c2ccccc2CNC2CCN(Cc3ccccc3)CC2)c1 | 6.57 |
| Fc1ccc2[nH]c(-c3ccc(-c4cccc(CN5CCCCC5)c4)cc3)nc2c1 | 2.86 |
| N#Cc1ccc2c(c1)CCN(CCC1CCC(NC(=O)/C=C/c3ccc(F)c4ccccc34)CC1)CC2 (stereo unspecified) | 1.5 |
| c1ccc(-c2cc3cccc(-c4nc5cnccc5[nH]4)c3o2)cc1 | 2.86 |
| CS(=O)(=O)Nc1cccc(-c2cnc3[nH]cc(-c4ccc(CCC(=O)O)cc4)c3c2)c1 | 2.75 |
| CC1(C)Cc2c([nH]c3ccccc23)C(CCCCCCCCC2=NC(C)(C)Cc3c2[nH]c2ccccc32)=N1 | 9.42 |
| CCN(CC)CCN(Cc1ccc(-c2ccc(C(F)(F)F)cc2)cc1)C(=O)Cn1nc(-c2ccc(C(F)(F)F)cc2)ccc1=O | 8.97 |
| O=C1Nc2cccc3c2C1(CCCCN1CCC(c2c(-c4ccc(F)cc4)[nH]c4ccccc24)CC1)CCC3 (stereo unspecified) | 7.91 |
| CC(C)(C)c1ccc(-c2cc3c(ccc4nc(N)nc(N)c43)[nH]2)cc1 | 13.5 |
| CCN(CCCN1CCCCC1)c1cc(C)nc(Nc2cccc(C(F)(F)F)c2)n1 | 10 |
| Cc1cccc2nc(-c3cccc(-c4ccc(NC(=O)C(C)(C)c5ccccn5)cc4)c3)[nH]c12 | 1.8 |
| O=S(=O)(c1cccc(Cl)c1F)N(CCC(O)(C(F)(F)F)C(F)(F)F)Cc1cccc(O)c1 | 4.35 |
| Oc1ccc(CCNCCCCCCNCCc2ccc(Br)cc2)cc1O | 5.15 |
| O=C(/C=C/c1ccc([N+](=O)[O-])cc1)N1CCC(CCN2CCC(c3c[nH]c4ccccc34)CC2)CC1 | 5.15 |
| COc1ccc(-c2cccc(NC(=O)c3ccc(Cl)cc3)c2)cc1CN1CCCN(C)CC1 | 10.7 |
| O=C1Nc2cccc3c2C1(CCCN1CCC(c2c[nH]c4cc(C(F)(F)F)ccc24)CC1)CCC3 (stereo unspecified) | 11.3 |
| CC(C)[C@@H](C(=O)NCc1cccc(C(F)(F)F)c1)N1C(=O)CCC1C(=O)Nc1ccc([N+](=O)[O-])cc1 (stereo partly specified) | 2.21 |
| Cc1cccc2nc(-c3cccc(-c4ccc(CN5CCC(C(N)=O)CC5)cc4)c3)[nH]c12 | 0.98 |

| SMILES | IFI [%] |
| --- | --- |
| COc1ccc(-c2nc3c(NCc4ccccc4)nccc3[nH]2)c(OC)c1 | 2.27 |
| CC(C)CN1CCCN(Cc2cccc(NC(=O)c3ccc(-c4ccccc4)cc3)c2)CC1 | 2.05 |
| CN1CCN(CCCN(Cc2csc(-c3ccc(CNCc4ccccc4)cc3)n2)C(=O)Nc2cccc(Cl)c2)CC1 | 9.87 |
| O=C1C(=Cc2c(O)ccc3ccccc23)SC(=NCc2ccccc2)N1Cc1ccccc1 | 0.72 |
| Cc1cccc2nc(-c3ccc(-c4cccc(NC(=O)Cc5c[nH]cn5)c4)cc3)[nH]c12 | 1.87 |
| O=C(/C=C/c1ccc(Cl)c(Cl)c1)N1CCC(CN2CCC(c3c[nH]c4cnccc34)CC2)CC1 | 2.8 |
| O=C(Cn1c(CCc2cccc(F)c2F)cc(=O)c2ccccc21)N(CCN1CCCC1)Cc1ccc(-c2ccc(C(F)(F)F)cc2)cc1 | 6.57 |
| Cc1cc(NC(=O)NCCN2CCC(NS(=O)(=O)c3ccc(C(F)(F)F)cc3)C2)c2ccccc2n1 (stereo unspecified) | 0 |
| O=[N+]([O-])c1ccc(-n2nc(-c3cccnc3)n(Cc3ccco3)c2=S)c(Cl)c1 | 1.35 |
| CCc1cc(NC2CCN(C)CC2)nc(Nc2ccc(C)cc2)n1 | 2.82 |
| Cc1cc(NC(=O)c2cccs2)ccc1OC1CCN(Cc2ccc(F)cc2)C1 (stereo unspecified) | 3.28 |
| C=CC[C@H](C[C@H](O)[C@H](Cc1ccccc1)NC(=O)c1ccc(-c2cccnn2)cc1)C(=O)NC1CCCCC1 | 0 |
| COc1ccc(-n2ccnc2SCC(=O)Nc2cc(C(F)(F)F)ccc2Cl)c(OC)c1 | 3.05 |
| Cc1cc2nc(-c3ccc(C(=O)NC4CCN(Cc5ccccc5)CC4)s3)[nH]c2cc1C | 4.17 |
| COc1ccccc1-c1ccc(CNC(=O)C(CN2CCN(C)CC2)c2ccccc2)cc1 (stereo unspecified) | 2.88 |
| CCc1cc(COc2ccc(CNCCC(C)C)cc2I)c(OCc2ccccc2)c(COc2ccc(CNCCC(C)C)cc2I)c1 | 14.3 |
| CCOCc1cn(CC(=O)c2ccc(-c3ccccc3)cc2)c(C)nc1=N | 4.17 |
| Cc1cc(OCCCN2CCC(NS(=O)(=O)c3ccc(C(F)(F)F)cc3)CC2)c2ccccc2n1 | 3.45 |
| CCCc1cc(Cc2cnc(N)nc2N)cc(CCC)c1O | 2.24 |
| O=C(Cc1cccc(Cl)c1)Nc1cccc(-c2c[nH]c3nc(Nc4cccc(O)c4)ncc23)c1 | 3.7 |
